The values that follow come from paper PMC6919601, “Identification of Plasmodium dipeptidyl aminopeptidase allosteric inhibitors by high throughput screening” (PLoS ONE, 2019).

Hit rate of the full screen: of about 110,000 compounds, about 230 (0.21%) showed an effect of 50% or more. The list shows a part of the results.
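Further: 30 min substrate incubation versus DMSO and 10 µM JCP410 controls.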

For this experiment, the target named is DPAP1 (Plasmodium falciparum, UniProt Q8IIJ9). The experiment in a line: primary screen, percent inhibition; read by cleavage of a fluorogenic dipeptide substrate; higher = more effect of the substance. On the set-up: species or system P. falciparum D10 trophozoite lysates; single well.
DPAP1, sequence (Q8IIJ9 whole entry, looked up): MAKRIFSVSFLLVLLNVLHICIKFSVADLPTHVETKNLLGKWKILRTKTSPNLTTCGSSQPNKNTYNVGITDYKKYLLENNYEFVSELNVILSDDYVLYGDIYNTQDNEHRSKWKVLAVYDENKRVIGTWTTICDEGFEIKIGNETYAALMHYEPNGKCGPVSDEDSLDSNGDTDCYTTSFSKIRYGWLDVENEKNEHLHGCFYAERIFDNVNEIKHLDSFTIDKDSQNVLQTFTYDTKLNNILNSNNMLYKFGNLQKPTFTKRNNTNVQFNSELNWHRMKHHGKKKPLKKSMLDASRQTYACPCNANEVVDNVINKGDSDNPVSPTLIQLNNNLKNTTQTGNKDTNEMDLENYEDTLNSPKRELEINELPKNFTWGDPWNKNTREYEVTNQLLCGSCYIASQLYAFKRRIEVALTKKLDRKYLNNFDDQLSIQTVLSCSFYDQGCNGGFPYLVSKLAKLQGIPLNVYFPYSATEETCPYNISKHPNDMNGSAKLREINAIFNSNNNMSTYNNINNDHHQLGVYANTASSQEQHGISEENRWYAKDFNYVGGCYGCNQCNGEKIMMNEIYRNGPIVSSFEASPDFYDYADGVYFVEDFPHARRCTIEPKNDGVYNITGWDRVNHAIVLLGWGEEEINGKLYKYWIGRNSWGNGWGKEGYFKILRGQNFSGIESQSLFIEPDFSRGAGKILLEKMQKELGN
In the case of `Cc1cccc(C(=O)Nc2ccc(C)cc2[N+](=O)[O-])c1`, the “% Inhibition @ 10 uM” value was determined as 0.135%. Regarding `CC1=NN(C(=O)c2ccc(N)cc2)C(O)(c2ccc(Cl)cc2)C1` (centres unmarked), the “% Inhibition @ 10 uM” value is given as 6.82%. To `O=C1c2ccccc2C(Nc2cccnc2)N1c1cccnc1` (centres unmarked) belongs -1.03%; to `CCn1c(O)nc2ccc3c(c21)C(=O)c1ccccc1C3=O`, -1.82%; to `COc1ccc(C2=N/C(=C/c3ccc(F)cc3)C(=O)O2)cc1Br`, 1.45%. With `CCOc1ccccc1C(=O)Nc1cccc(-c2nc3ccccc3o2)c1`, the “% Inhibition @ 10 uM” value is on record as 1.03%. To `CC1=CN2C(=O)C(Cc3ccccc3)(NC(=O)c3ccccc3)N=C2C=C1` (centres unmarked) belongs 1.03%; to `O=C(NCCc1ccccc1)Nc1cccc(Cl)c1`, -8.76%. As for `CCc1ccccc1Oc1coc2cc(OC)ccc2c1=O`, the “% Inhibition @ 10 uM” value was -2.98%. The same measure for `COCCCNC(=O)CN(c1ccc(C)c(Cl)c1)S(C)(=O)=O`: -7.84%; for `CCc1ccc(-n2nc(C)c3c(C(F)(F)F)cc(=O)n(CC(=O)N4CCOCC4)c32)cc1`: 2.14%; for `CCOC(=O)c1[nH]c(C)c(C(=O)CCc2ccccc2)c1C`: -0.693%. In the case of `O=C(c1ccco1)N1CCN(C(=O)c2cnn(-c3ccccc3)c2-n2cccc2)CC1`, the “% Inhibition @ 10 uM” value was 1.8%. The same measure for `CCOC(=O)c1cc(S(=O)(=O)NCC2CCCO2)cn1C` (centres unmarked): 0.655%; for `Cc1n[nH]c(C)c1CCCOc1ccc(Cl)cc1`: -6.82%. Consider `CCN1CCN(c2nc3c(S(=O)(=O)c4ccccc4)nnn3c3ccccc23)CC1`, for which the “% Inhibition @ 10 uM” value stood at 0.49%. To `Cc1cc(Br)ccc1NC(=O)C1CC(=O)N(c2ccccc2)C1` (centres unmarked) belongs 4.11%; to `C=CCOc1ccc(C(=O)C2=C(O)C(=O)N(CCCN(C)C)C2c2ccc(OC)cc2)c(C)c1` (centres unmarked), -1.93%; to `CCn1nc(-c2cc(Br)ccc2F)nc2c(=O)n(C)c(=O)nc1-2`, 5.29%. To `Cc1cc(O)c(C2=Nc3ccccc3SC(c3ccsc3)C2)c(=O)o1` (centres unmarked) belongs 0.986%.

As for `O=C(c1sc2ccccc2c1Cl)N1CCN(Cc2ccccc2)CC1`, the “% Inhibition @ 10 uM” value is 0.51%. To `Nc1nonc1C(=O)NCCNCc1ccccc1OCc1ccccc1F` belongs 1.67%.

With `COc1cc(OC)cc(-c2cc3nc(C4CCNCC4)cc(O)n3n2)c1`, the “% Inhibition @ 10 uM” value is on record as -1.03%. The same measure for `Cc1ccc(CNC(=O)c2ccc(Cl)cc2Cl)cc1`: 5.01%. To `CCc1nnc(NC(=O)c2cc(=O)c3ccc(C)cc3o2)s1` belongs 1.9%. To `CC1=C(c2ccc(C(C)C)cc2)S(=O)(=O)N=C1NC(C)C12CC3CC(CC(C3)C1)C2` (centres unmarked) belongs 5.42%; to `N#Cc1c(N)c(C(=O)c2ccccc2)n2c1CCC2`, -7.25%.

Take `Nc1ncn(CC(O)CO)c2nc(NCCO)nc1-2` (centres unmarked): the “% Inhibition @ 10 uM” value is given as 1.4%.

On to `O=C(O)C1C2CCC(C2)C1C(=O)NCCC1=CCCCC1` (centres unmarked), for which the “% Inhibition @ 10 uM” value worked out at 1.96%. To `COc1ccc(F)cc1S(=O)(=O)N1CCC(C(N)=O)CC1` belongs 0.108%; to `COc1cc(NC(=O)c2ccc(-c3ccccc3)cc2)c(OC)cc1Cl`, -4.94%; to `COc1cccc(NC(=O)C2CC(=O)N(C)/C(=N/c3cccc(F)c3)S2)c1` (centres unmarked), 1.52%. To `CCCn1c(CCCO)nc2ccccc21` belongs 3.96%; to `Nc1c2c(nc3ccn(Cc4ccccc4)c(=O)c13)CCCC2`, -2.56%. For `COc1ccc(NC(=O)CN(CCc2ccccc2)S(C)(=O)=O)cc1Cl`, the “% Inhibition @ 10 uM” value was -7.28%. The same measure for `COc1ccc(/C=C2\SC(c3ccc(C)cc3)=NC2=O)c(OC)c1OC`: -1.96%; for `COc1cccc2c1Sc1ccc(Cl)cc1CC2N1CCNCC1` (centres unmarked): -4.12%.

For the molecule `CCCC(=O)Nc1ccc(Cl)c(NC(=O)COc2cc(C)cc(C)c2)c1`, the “% Inhibition @ 10 uM” value is reported as 4.44%. On to `Clc1ccc(CN2CCc3c([nH]c4ccccc34)C2)cc1`, for which the “% Inhibition @ 10 uM” value is reported as 0.605%. Turning to `CC1CCN(c2nc3c(c(=O)n(Cc4ccc(Cl)c(Cl)c4)c(=O)n3C)n2C)CC1`, the “% Inhibition @ 10 uM” value is on record as 0.279%. The same measure for `O=c1c(NCCc2ccccc2)c(-c2ccccc2)c1=O`: -5.61%; for `O=C(CCCOc1ccc(Cl)cc1Cl)Nc1ccccn1`: -4.02%.

Regarding `CC(C)CC(NC(=O)c1ccc(NC(=O)N2CCN(c3ncccn3)CC2)cc1)C(=O)NCC#N` (centres unmarked), the “% Inhibition @ 10 uM” value is reported as -7.36%. To `CC1CCN(S(=O)(=O)c2ccc(NS(=O)(=O)c3ccccc3)cc2)CC1` belongs -3.26%; to `O=C1NC(=O)N(c2cccc(Cl)c2)C(=O)/C1=C\Nc1ccc(S(=O)(=O)CCO)cc1`, 4.32%; to `CN1CCN(C(=O)CN(c2ccccc2F)S(C)(=O)=O)CC1`, -0.872%. The same measure for `Cc1[nH]c(-c2ccc(F)cc2)cc1C(=O)NC1CCCCCC1`: 3.09%; for `O=C(Cn1ncc2ccccc21)NCCCN1CCc2ccccc2C1`: 4.84%.

With `O=C(Nc1ccc(S(=O)(=O)N2CCc3ccccc32)cc1)C1CC1`, the “% Inhibition @ 10 uM” value is listed as -2.19%. The same measure for `Cn1cc(S(=O)(=O)N2CCCC2)cc1C(=O)NCc1ccc2c(c1)OCO2`: 2.81%; for `O=C(Cn1ncc2c3ccccc3n(Cc3ccccc3F)c2c1=O)N1CCOCC1`: 1.8%; for `COc1ccc(-c2nc(CSCC(=O)NCCN3CCCCC3C)c(C)o2)cc1OC` (centres unmarked): -2.85%. As for `CCOC(=O)N1CCN(S(=O)(=O)c2ccc(OC)c3ccccc23)CC1`, the “% Inhibition @ 10 uM” value was 2.32%. Regarding `COc1ccc(OCC(=O)Nc2ccc(Br)cc2C(=O)O)cc1`, the “% Inhibition @ 10 uM” value came to 1.96%. The same measure for `CC1CCc2nc(N)c(C#N)c(-c3ccc(Br)s3)c2C1` (centres unmarked): 3.72%.

With `Cc1ccc(OCCCn2ccnc2)cc1`, the “% Inhibition @ 10 uM” value was -7.87%. The same measure for `CCCCN1CC(C(=O)NC(C)C)CC1=O` (centres unmarked): -1.79%; for `CCC1CCCCN1CCCNC(=O)Cn1nc(C)c2c(C)n(-c3ccccc3)nc2c1=O` (centres unmarked): -4.38%. To `O=C(Nc1sc2c(c1C(=O)Nc1ccccc1)CCC2)c1cccs1` belongs -11.1%. The same measure for `CCCCN1C(=O)c2ccccc2C1C(=O)NC1CCCC1` (centres unmarked): 2.79%; for `O=C(CC(C(=O)O)c1ccccc1)Nc1cccnc1` (centres unmarked): 2.48%; for `CCOc1cc(-c2cc(N)n(S(=O)(=O)c3ccc(F)cc3)n2)cc(OCC)c1OCC`: 2.74%. With `COc1ccc(C2C(C#N)=C(N)OC3=C2C(=O)CC(c2ccc(C)cc2)C3)cc1` (centres unmarked), the “% Inhibition @ 10 uM” value is listed as 4%. To `COc1ccc(CN2CCCCC2CO)cc1Br` (centres unmarked) belongs 2.65%; to `CCN(CC)CC#CCC(O)(c1ccccc1)C1CCCCC1` (centres unmarked), 2.4%; to `Clc1ccc(-c2cnc3ccccc3n2)cc1`, 4.57%. The same measure for `COc1ccccc1NC(=O)CSc1nc(N)c2c3c(sc2n1)COC(C(C)C)C3` (centres unmarked): -0.0938%; for `CCc1ccc(NC2Nc3cc(C)nn3S2)cc1` (centres unmarked): -4.05%; for `Cc1ccc(-n2nc3c(N4CCCC(C(=O)NCCc5cccs5)C4)nnc(C)c3c2C)cc1` (centres unmarked): 3.42%. The same measure for `O=C(Nc1ccccc1C(=O)NCc1ccccc1)c1ccco1`: -15.1%; for `COc1ccccc1C(O)(c1ccccc1)C(CN1CCOCC1)c1ccccc1` (centres unmarked): -0.551%. With `Cc1cccc(CNC(=O)c2ccc3c(c2)c(C)c(C)n3C)c1`, the “% Inhibition @ 10 uM” value was -7.64%. For the molecule `O=C(O)c1nc(-c2ccccc2)cc(-c2ccccc2)n1`, the “% Inhibition @ 10 uM” value is -5.62%. To `CCOC(=O)C1=C(CN2CCC(N3CCCCC3)CC2)NC(=O)NC1c1ccc(C)cc1` (centres unmarked) belongs -8.28%; to `COc1ccc(C(=O)N2CCN(Cc3ccc(SC)cc3)CC2)cc1OC`, 4%; to `Cc1cc(C)n(-c2nnc(C)n2/N=C/c2ccc3ccccc3c2)n1`, -4.51%.

With `O=C(CNS(=O)(=O)c1cccs1)NC(c1ccccc1)c1ccccc1`, the “% Inhibition @ 10 uM” value is 7.57%.

For `COCCN1C(=S)NC2c3ccccc3OC1(C)C2C(=O)N(C)C` (centres unmarked), the “% Inhibition @ 10 uM” value was 6.2%.

As for `CCOC(=O)Nc1oc2ccccc2c(=O)c1CN1CCOCC1`, the “% Inhibition @ 10 uM” value is listed as -5.51%.

Take `C=CCn1c(-c2nonc2NC(=O)CC)nc2ccccc21`: the “% Inhibition @ 10 uM” value amounted to 1.72%. The same measure for `COc1ccccc1-c1cc(C(=O)Nc2sc3c(c2C#N)CCC3)no1`: 2.01%; for `COc1ccc(NC(=O)CN(c2cc(Cl)ccc2C)S(C)(=O)=O)c(OC)c1`: -9.24%; for `Cc1c2cnn(CC(=O)NCCCN3C(C)CCCC3C)c(=O)c2c(C)n1Cc1ccc(F)cc1` (centres unmarked): -0.447%. Take `COc1ccc(NC(=O)c2c(NC(C)=O)sc3c2CCCCC3)cc1`: the “% Inhibition @ 10 uM” value amounted to 20.1%.

Consider `CCN(CC)CCNC(=O)C(=O)NC(C)C(c1cccs1)N1CCN(C)CC1` (centres unmarked), for which the “% Inhibition @ 10 uM” value was 5.53%. To `O=C(Nc1cccc(C(F)(F)F)c1)c1ccccc1Cl` belongs -4.31%. To `Cc1onc(-c2ccccc2Cl)c1C(=O)Nc1nnc(C2CCCCC2)s1` belongs -5.2%. As for `CCC[C@H](NC(=O)C1(NC(=O)c2cccc(N(C)C)c2)CCCCC1)C(=O)c1nc2ccccc2o1`, the “% Inhibition @ 10 uM” value turned out to be 3.19%.

Turning to `CS(=O)(=O)N(CC(=O)Nc1ccccc1)c1cccc(Br)c1`, the “% Inhibition @ 10 uM” value is -9.68%. To `COc1ccc(C(=O)C2=C(O)C(=O)N(CCc3c(C)[nH]c4ccccc34)C2c2ccccc2F)cc1` (centres unmarked) belongs 2.57%; to `CC(C)OCCCNC(=O)CCc1nnc2n(CCc3ccccc3)c(=O)c3ccccc3n12`, -4.21%. Turning to `COc1ccccc1C(=O)N(Cc1ccco1)C1CCS(=O)(=O)C1` (centres unmarked), the “% Inhibition @ 10 uM” value was -6.5%. To `CC1(C)CC(=O)C(/C=N/c2cccnc2/N=C/C2=C(O)CC(C)(C)CC2=O)=C(O)C1` belongs 2.03%; to `COc1ccc2nc3oc(C(=O)NCCCN4CCC(Cc5ccccc5)CC4)cc3cc2c1`, 3.54%.

`CCc1c(C)sc(NC(=O)CCc2ccc(OC)cc2)c1C(N)=O`: the “% Inhibition @ 10 uM” value was determined as 2.76%. Consider `O=C1Nc2cc(Cl)ccc2Sc2ccccc21`, for which the “% Inhibition @ 10 uM” value worked out at 2.5%. To `c1ccc(OCCCCCCN2CCOCC2)cc1` belongs -4.21%; to `COCCCNC(=O)C(C)Oc1ccc(Cl)cc1Cl` (centres unmarked), 4.56%.

Turning to `COc1ccc(Br)cc1CNc1ccc(O)cc1`, the “% Inhibition @ 10 uM” value is reported as -1.04%. The same measure for `O=C(C1CCN(c2nnc(-n3cccc3)s2)CC1)N1CCCCCC1`: 4.64%; for `COc1ccc(OCC(=O)Nc2ccc(Oc3ccccc3)cc2)cc1`: -3.58%.
